Drawing on PubChem BioAssay AID2202238 (Ras Initiative Chemistry Research Team, Frederick National …, 2025), this text covers percent labeling for 23 compounds.

In this experiment the target is GTPase KRas (Homo sapiens) (UniProt P01116). Briefly: Covalent labelling of cysteine mutants by fragments, read by mass spectrometry (AID 2202238). Also noted: protein at 5 µM with 500 µM competing thiol for 1.5 h. To be noted: KRAS G12D cysteine mutants, disulfide tethering, MALDI-TOF labeling, stronger effect = higher value, fragment at 500 µM.
Setting [1] is: measured here: G75C mutant labeling.
The mark [2] stands for this setting: measured here: H94C mutant labeling.
[3] abbreviates: measured here: I36C mutant labeling.
Setting [4] is: measured here: L120C mutant labeling.
Setting [5] is: measured here: M67C mutant labeling.
The mark [6] stands for this setting: measured here: M72C mutant labeling.
The mark [7] stands for this setting: measured here: N86C mutant labeling.
Where [8] appears, read: measured here: P121C mutant labeling.
Setting [9] is: measured here: S122C mutant labeling.
[10] abbreviates: measured here: S136C mutant labeling.
[11] abbreviates: measured here: G60C mutant labeling.
Where [12] appears, read: measured here: N26C mutant labeling.

This is one part of the list. The main result of the screen is listed elsewhere. These columns were measured beside it and carry no call.

Sequence of UniProt P01116 (P01116 whole entry, looked up, the tested form may be a part): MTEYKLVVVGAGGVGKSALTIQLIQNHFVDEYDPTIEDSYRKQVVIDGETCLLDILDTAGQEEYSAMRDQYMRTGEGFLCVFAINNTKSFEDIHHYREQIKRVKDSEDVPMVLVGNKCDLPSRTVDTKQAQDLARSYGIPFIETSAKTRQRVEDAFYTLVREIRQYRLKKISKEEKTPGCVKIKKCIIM

Compound `O=C(CCS)N1C[C@@H]2C[C@H](C1)[C@@H]1CCCC(=O)N1C2` gave a percent labeling under setting [1] of 14%; a percent labeling under setting [2] of 21.8%; a percent labeling under setting [3] of 22.8%; a percent labeling under setting [4] of 26.3%; a percent labeling under setting [5] of 28.1%; a percent labeling under setting [6] of 9.7%. In addition, the percent labeling runs as follows: under setting [7], 19.9%; under setting [8], 24.5%; under setting [9], 32.4%; under setting [10], 38%.

In the case of `Cn1cc(CNC(=O)CCS)c(=O)[nH]c1=O`, the percent labeling is, setting by setting: under setting [1], 0%; under setting [2], 22.4%; under setting [3], 29.4%; under setting [4], 18.5%; under setting [5], 32.4%; under setting [6], 7.9%. Besides, the percent labeling is, setting by setting: under setting [7], 12.8%; under setting [8], 37.5%; under setting [9], 26.5%; under setting [10], 39.6%.

`Cc1cc(NC(=O)CCS)nn1CCC#N`: the percent labeling runs as follows: under setting [1], 15.2%; under setting [2], 29.9%; under setting [3], 36.9%; under setting [4], 30.3%; under setting [5], 30.3%; under setting [6], 24.7%. For the same compound, the percent labeling runs as follows: under setting [7], 20.4%; under setting [8], 34%; under setting [9], 31.5%; under setting [10], 48.4%.

As to `O=C(NCCS)C1Cc2cc(Br)cnc2C1` (stereo not given), the percent labeling was 56.9% under setting [11]; 20.6% under setting [1]; 40% under setting [2]; 34.7% under setting [3]; 46% under setting [4]; 36.7% under setting [5]. Further, the percent labeling under setting [6] was determined as 39.1%; the percent labeling under setting [12] came out at 52.2%; the percent labeling under setting [7] is 30.7%; the percent labeling under setting [8] came out at 39.8%; the percent labeling under setting [9] was 30.9%; the percent labeling under setting [10] is 54.4%.

As to `O=C(NCCS)C1CCN(S(=O)(=O)c2ccc3[nH]c(=O)cnc3c2)CC1`, the percent labeling was 36.1% under setting [11]; 15.7% under setting [1]; 17.6% under setting [2]; 21.4% under setting [3]; 16.7% under setting [4]; 17.1% under setting [5]. Further, the percent labeling worked out at 21.9% under setting [6]; 34.3% under setting [12]; 16.5% under setting [7]; 19.1% under setting [8]; 16.2% under setting [9]; 21.1% under setting [10].

On to `Cn1cc(C(C(=O)NCCS)N2CCOCC2)cn1` (stereo not given), for which the percent labeling turned out to be 17.2% under setting [11]; 7.7% under setting [1]; 25.1% under setting [2]; 21.7% under setting [3]; 28.1% under setting [4]; 31.2% under setting [5]. This compound had a percent labeling under setting [6] of 6.9%; a percent labeling under setting [12] of 30.7%; a percent labeling under setting [7] of 20.7%; a percent labeling under setting [8] of 30.8%; a percent labeling under setting [9] of 27%; a percent labeling under setting [10] of 33.5%.

Turning to `O=C(NCCS)c1ccnc(OC2CCOC2)c1` (stereo not given), the percent labeling under setting [11] was 30.8%; the percent labeling under setting [1] came to 19.2%; the percent labeling under setting [2] turned out to be 29.5%; the percent labeling under setting [3] came to 25.1%; the percent labeling under setting [4] was 36.9%; the percent labeling under setting [5] worked out at 30.5%. The same compound registered a percent labeling under setting [6] of 39.6%; a percent labeling under setting [12] of 46.1%; a percent labeling under setting [7] of 23.4%; a percent labeling under setting [8] of 29.4%; a percent labeling under setting [9] of 31%; a percent labeling under setting [10] of 53.5%.

Turning to `Cc1nc(-c2cc3c(s2)CCN(C(=O)CCS)C3)cs1`, the percent labeling runs as follows: under setting [1], 14.3%; under setting [2], 18.6%; under setting [3], 21.3%; under setting [4], 12%; under setting [5], 19%; under setting [6], 39.9%. For the same compound, the percent labeling by setting is: under setting [7], 14.3%; under setting [8], 12.8%; under setting [9], 9.9%; under setting [10], 17.7%.

In turn, `O=C(NCCS)c1ccnc(-c2ccc(Cl)cc2)n1` registered a percent labeling under setting [11] of 28.9%; a percent labeling under setting [1] of 15.9%; a percent labeling under setting [2] of 13.3%; a percent labeling under setting [3] of 8.3%; a percent labeling under setting [4] of 17.4%; a percent labeling under setting [5] of 8.8%. Moreover, the percent labeling is, setting by setting: under setting [6], 30.8%; under setting [12], 23%; under setting [7], 10.8%; under setting [8], 11.2%; under setting [9], 9.1%; under setting [10], 14.2%.

For `CCc1cc(=O)c2cc(NC(=O)CCS)ccc2[nH]1`, the percent labeling is, setting by setting: under setting [1], 8.2%; under setting [2], 21.8%; under setting [3], 26%; under setting [4], 18.9%; under setting [5], 25.5%; under setting [6], 24.7%. The compound further showed a percent labeling under setting [7] of 18%, a percent labeling under setting [8] of 18.9%, a percent labeling under setting [9] of 18.6% and a percent labeling under setting [10] of 36.6%.

Turning to `Cc1ccc(-c2c[nH]cc2C(=O)NCCS)s1`, the percent labeling is, setting by setting: under setting [11], 3.7%; under setting [1], 0%; under setting [2], 2.6%; under setting [3], 0%; under setting [4], 0%; under setting [5], 2.1%. The percent labeling was 3% under setting [6]; 2.8% under setting [12]; 0% under setting [7]; 2% under setting [8]; 0% under setting [9]; 11.9% under setting [10].

Regarding `O=C(CCS)NCc1cc2n(n1)CCCO2`, the percent labeling runs as follows: under setting [1], 12.4%; under setting [2], 33.6%; under setting [3], 43%; under setting [4], 25.6%; under setting [5], 37.6%; under setting [6], 20.9%. For the same compound, the percent labeling is, setting by setting: under setting [7], 39.4%; under setting [8], 38.8%; under setting [9], 37%; under setting [10], 55.1%.

On to `Cn1cc(S(=O)(=O)N2CCOCC2)cc1C(=O)NCCNC(=O)CCS`, for which the percent labeling by setting is: under setting [1], 8.8%; under setting [2], 22.4%; under setting [3], 35.2%; under setting [4], 25.3%; under setting [5], 28.4%; under setting [6], 14.3%. Also, the percent labeling stood at 15.8% under setting [7], 25% under setting [8], 29.9% under setting [9] and 45.3% under setting [10].

For the compound `O=C(NCCS)c1cccc(OCc2cn3ccccc3n2)c1`, the percent labeling was 30.8% under setting [11]; 9.7% under setting [1]; 17.9% under setting [2]; 12.9% under setting [3]; 13.2% under setting [4]; 20.4% under setting [5]. Besides, the percent labeling under setting [6] turned out to be 48.4%; the percent labeling under setting [12] came to 37.3%; the percent labeling under setting [7] is 8.1%; the percent labeling under setting [8] is 11.3%; the percent labeling under setting [9] turned out to be 8.9%; the percent labeling under setting [10] was determined as 16.9%.

As to `CC(C)c1n[nH]c(CC2CCN(C(=O)CCS)CC2)n1`, the percent labeling is, setting by setting: under setting [1], 11.2%; under setting [2], 33.5%; under setting [3], 38.4%; under setting [4], 42.3%; under setting [5], 41.1%; under setting [6], 18.5%. This compound showed a percent labeling under setting [7] of 29.9%, a percent labeling under setting [8] of 34.8%, a percent labeling under setting [9] of 34.6% and a percent labeling under setting [10] of 53.5%.

On to `N#Cc1cccc(OCc2ccoc2C(=O)NCCS)c1`, for which the percent labeling is, setting by setting: under setting [11], 23.4%; under setting [1], 9%; under setting [2], 14%; under setting [3], 8.8%; under setting [4], 14.7%; under setting [5], 11.3%. The percent labeling is, setting by setting: under setting [6], 35%; under setting [12], 18.9%; under setting [7], 11.2%; under setting [8], 12.1%; under setting [9], 8.9%; under setting [10], 15.1%.

As for `O=C(CCS)NCc1nccn1CC(F)(F)F`, the percent labeling is, setting by setting: under setting [1], 9.7%; under setting [2], 23.1%; under setting [3], 31.7%; under setting [4], 22.9%; under setting [5], 25.4%; under setting [6], 17.4%. For the same compound, the percent labeling stood at 24.5% under setting [7], 25.9% under setting [8], 24.5% under setting [9] and 40.4% under setting [10].

With `Cc1ccnc(-c2n[nH]c(C(C)NC(=O)CCS)n2)c1` (stereo not given), the percent labeling is, setting by setting: under setting [1], 10.3%; under setting [2], 19.5%; under setting [3], 26.7%; under setting [4], 36.1%; under setting [5], 37.8%; under setting [6], 19.5%. Moreover, the percent labeling was found to be 14.2% under setting [7], 27.4% under setting [8], 33% under setting [9] and 43% under setting [10].

For the compound `O=C(COc1ccc2ccccc2c1)NCCS`, the percent labeling came out at 13.2% under setting [11]; 7.6% under setting [1]; 10.3% under setting [2]; 8.7% under setting [3]; 12.6% under setting [4]; 8.2% under setting [5]. In addition, the percent labeling was determined as 29.4% under setting [6]; 20.7% under setting [12]; 2.7% under setting [7]; 8.2% under setting [8]; 4.9% under setting [9]; 10.5% under setting [10].

The compound `O=C(CCS)NC1(c2ccc(Br)s2)CC1` displayed a percent labeling under setting [1] of 18.4%; a percent labeling under setting [2] of 52.3%; a percent labeling under setting [3] of 34%; a percent labeling under setting [4] of 30.3%; a percent labeling under setting [5] of 35%; a percent labeling under setting [6] of 37.8%. Further, the percent labeling turned out to be 26.8% under setting [7], 30.5% under setting [8], 23.8% under setting [9] and 51.8% under setting [10].

On to `COc1ccc2ccccc2c1CNC(=O)CCS`, for which the percent labeling reads like this: under setting [1], 12.9%; under setting [2], 30%; under setting [3], 24.4%; under setting [4], 17.8%; under setting [5], 41.8%; under setting [6], 39.3%. For the same compound, the percent labeling reads like this: under setting [7], 22.7%; under setting [8], 19.2%; under setting [9], 17.8%; under setting [10], 41.8%.

Consider `CC(=O)Nc1ccc(-c2csc(NC(=O)CCS)n2)cc1`, for which the percent labeling is, setting by setting: under setting [1], 9.3%; under setting [2], 20.4%; under setting [3], 17.5%; under setting [4], 7.9%; under setting [5], 11%; under setting [6], 29.3%. Moreover, the percent labeling is 4.3% under setting [7], 7.5% under setting [8], 5.2% under setting [9] and 19.9% under setting [10].

For `O=C(NCCS)c1ccc(NC(=O)c2ccc(=O)[nH]c2)cc1`, the percent labeling came to 10.5% under setting [11]; 5.3% under setting [1]; 7.4% under setting [2]; 8.2% under setting [3]; 6% under setting [4]; 7.7% under setting [5]. The percent labeling by setting is: under setting [6], 22.5%; under setting [12], 23.1%; under setting [7], 9.6%; under setting [8], 6.4%; under setting [9], 4.9%; under setting [10], 8.2%.
